Over roughly 33,000 sequences, “E-score (-0.5 to 0.5)” has its median near -0.021; the highest 2% begin near 0.32. Some of the results follow.
Each sequence was assayed against T1, Zap1 (UniProt P47043) (assay: PBM E-score (8-mer binding enrichment) (E-score (-0.5 to 0.5)); higher = stronger / more preferred TF binding; most listed sequences are background and not binding sites). Conditions: protein concentration: 200 nM; construct: GST-full length.
T1 sequence: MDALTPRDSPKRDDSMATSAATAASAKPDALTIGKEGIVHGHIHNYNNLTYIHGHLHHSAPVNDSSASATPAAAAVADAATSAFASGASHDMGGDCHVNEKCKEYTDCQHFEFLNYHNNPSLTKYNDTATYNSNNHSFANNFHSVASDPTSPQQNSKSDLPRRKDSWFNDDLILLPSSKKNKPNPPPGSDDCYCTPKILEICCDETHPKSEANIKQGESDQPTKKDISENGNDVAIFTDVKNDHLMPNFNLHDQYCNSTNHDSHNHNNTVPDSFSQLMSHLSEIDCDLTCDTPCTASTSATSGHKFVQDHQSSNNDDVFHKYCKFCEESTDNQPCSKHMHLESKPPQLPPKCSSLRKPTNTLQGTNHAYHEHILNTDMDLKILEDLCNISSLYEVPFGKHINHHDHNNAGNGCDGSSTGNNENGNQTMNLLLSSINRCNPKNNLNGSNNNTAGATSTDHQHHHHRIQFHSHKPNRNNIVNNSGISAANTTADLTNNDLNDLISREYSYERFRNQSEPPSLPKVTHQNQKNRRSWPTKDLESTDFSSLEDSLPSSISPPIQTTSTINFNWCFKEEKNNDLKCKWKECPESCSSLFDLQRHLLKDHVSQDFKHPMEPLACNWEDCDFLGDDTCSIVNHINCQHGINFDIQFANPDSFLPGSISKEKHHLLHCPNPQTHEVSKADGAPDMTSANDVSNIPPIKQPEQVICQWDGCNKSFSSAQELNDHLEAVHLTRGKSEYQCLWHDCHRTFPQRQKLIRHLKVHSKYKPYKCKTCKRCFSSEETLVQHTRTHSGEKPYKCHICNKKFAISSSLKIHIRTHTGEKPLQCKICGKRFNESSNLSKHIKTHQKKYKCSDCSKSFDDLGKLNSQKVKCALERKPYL
Method in brief: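 GST-tagged yeast TFs (full-length or DNA-binding domain) were made by PURExpress in vitro transcription/translation and applied at about 100-200 nM to universal all-10-mer Agilent arrays. The arrays were made double-stranded by primer extension, on fresh or once-stripped slides. Bound protein was detected with fluorescent anti-GST, and scans were normalised with masliner. Each ungapped eight-base word, pooled with its reverse complement, received an E-score (modified Wilcoxon-Mann-Whitney statistic) from the Universal PBM Analysis Suite.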

Sequence	PBM E-score
CATTACTA	-0.0295
GAGGGGGC	-0.319
ATACGCCC	-0.2
ATCCACGA	0.156
CAAGCAGC	-0.0757
AGGTTCTA	0.0524
CTGACACA	-0.111
CACTGTAA	0.0817
ATGTTCAG	-0.0491
ACAAGAGT	0.0378
ATAAGAAG	0.15
CGCGTCTA	-0.228
AGCAACAG	-0.195
GCTCCGGA	-0.169
ACGGTCTA	-0.0875
GCACGGAC	-0.0076
ACGTATTG	-0.135
TGCTTACA	-0.16
AGACCCCA	0.281
ACCGGAGG	-0.0907
ACAGAGGA	-0.0172
ATGAGACG	-0.135
TGAGCCCA	-0.0912
ACGGATCG	-0.261
AGACCCGC	-0.054

Sequence	PBM E-score
AGGATCGG	-0.212
GATCAGCA	-0.0439
TAAATCAA	0.165
GAAATCAA	-0.0268
CAGTTCGC	0.0483
AATAAAGC	-0.0617
CATATTGG	0.0442
CTTGGCGC	0.0977
CGATAGAA	0.0889
GTAGGAAA	0.0104
GCTCCGTA	-0.204
CATTCAAA	0.0938
AGCTCCCG	-0.274
ATATATAC	0.199
CACAGTCG	-0.0562
ATGCAACA	0.0505
AACCAGGG	0.215
TATATCCA	0.0483
AAAGCTGG	-0.144
GTGTCAAC	-0.121
AGAATTTG	0.142
GCCTATAA	0.0396
GCGGACAC	0.0715
AACCCAGC	0.147
GCCTCAGA	-0.0467

Sequence	PBM E-score
CAACCCCG	0.211
CGAACTCC	-0.121
AATTGTCT	0.0635
TACCGATA	0.102
CAATTTTA	0.114
AGGGTTGG	0.333
CGGCCCAG	-0.14
CCTCGACG	-0.117
ACCACTAG	0.218
ACCGTCAT	-0.0375
CGCTAGCG	-0.117
CAGGGGTA	0.286
AACCTTGT	0.229
TCTTCCCA	-0.0261
AAGAATGA	-0.0399
AAGATGCT	-0.274
GCGACAGC	-0.115
CCAATCCA	-0.0777
ACTCCAGC	-0.288
CCCGTCCG	-0.284
GACTCCCC	-0.236
AACCCCAC	0.344
GCGGCGTA	-0.174
CAAGCACG	-0.199
AACCCCAT	0.359

Sequence	PBM E-score
ACATGGCA	-0.201
ACATTGTG	-0.0522
ACGCGAAG	0.0536
AAACACGG	0.00614
AGAGGGGG	-0.319
AAACTACC	0.294
AGGAGTGA	-0.207
ATTAATTA	0.19
ACGTGGCC	-0.0219
CGTTTCGA	-0.097
CAACCCGA	0.355
CAGCCGGA	-0.0143
AATACTGC	-0.0187
TCGAATCA	-0.086
ACTCCTTA	0.0191
CATTCCTA	-0.0344
ACGGCACC	-0.164
GCCCACAA	0.147
AAGTATAA	0.134
AGCTCGAA	0.0884
TCGAGGCA	-0.121
CAATGGCG	-0.244
GTGCCGCA	-0.0717
TCATTCCA	-0.0602
GAAATGGC	-0.091

Sequence	PBM E-score
AAAAGCGC	-0.135
GATAAATC	-0.0377
ACGGGACT	-0.325
CAGTTACC	0.208
CGAGAGCC	-0.188
AACTAACC	0.333
ATTGTCAA	0.157
ACCTAAGT	0.185
CATAGAAG	-0.0579
CAGCGGTA	0.0887
TCCCTCCA	-0.134
ACGCCGCA	-0.214
AGCCTAGA	-0.126
AATTGACA	-0.0166
CGTAGGGC	-0.168
AGTTACGG	0.0975
AATGCGCA	0.0233
TGGAACAA	0.0799
CTTCGCAC	-0.0742
GTCTCATA	-0.0428
ACAAGAGC	-0.183
GTGCGTAA	0.0268
CAGACAGC	-0.0475
AATTCCTG	-0.124
ATGTATTG	0.0156

Sequence	PBM E-score
CAGGTATC	0.138
TCACCACA	0.17
ATTACAAA	0.113
AACAATAC	0.124
CATTTTTC	0.0692
AGACCCTA	0.298
CAAGCCAC	-0.144
ATTCAGCG	-0.0993
AAGTCTTC	-0.063
AAATACGC	-0.0673
AAATCCGC	-0.248
CGGCACAA	-0.0187
ACAATTCG	-0.0223
AGATGTTC	-0.158
GACCCACA	0.308
CCGCCCGA	-0.0384
ATACGAAA	0.173
ACCAGGGG	-0.0398
AAATCGAG	0.051
CGGCCTTC	0.135
CCATGTAC	0.0901
ACTAATAC	0.23
GGTTTGTA	0.119
CGCTGCAC	-0.174
CTGTTAAA	0.0123

Sequence	PBM E-score
GCCGTAAC	0.287
ATGGCATC	-0.183
GGAGCGAA	-0.175
TATTAAGA	0.0188
ATCTATTC	0.0436
GTATTTGA	0.0608
AGATTTCA	0.00329
CCTGTTCC	-0.128
ACGGGATG	-0.174
CGTCGCAC	-0.0967
CGGTACGC	-0.129
GGGTCACA	0.398
GGGCAGTA	-0.146
GAACCACA	0.102
CGCCATAA	0.0925
GAGAACAC	-0.079
TCGAAGCA	-0.224
ACCCAGAT	0.19
ATAAGTCC	-0.00375
GACGTGAC	-0.0566
CGGACGTC	-0.169
AGAATGTC	-0.128
